Measurements from the supplement of paper PMC10126150.
Values marked as one replicate rest on one cluster of the flow cell; about a third of the high ones do not repeat.
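Note: ATP exposure 15 min at 22 °C before imaging.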

These sequences were tested on ATP (assay: switch fluorescence ratio, 500 uM ATP over buffer (Cy3 cluster intensity, sum of 5 cycles each) (fold (ratio)); higher = stronger signal-on switching upon ATP binding; sequences stand for … in TCGTCGGCAGCGTCAGATGTGTATAAGAGACAGTTTTTTTTTTTTTTTTTTTTTTTTT…TC). Details: aptamer strand: ATP DNA aptamer (quencher-CACCTGGGGGAGTATTGCGGAGGAAGG + anchor), 100 nM annealed; ATP concentration: 500 uM; one replicate.
How it was run: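 Five buffer/ATP imaging cycles were run on Cy3-labelled switching-strand clusters on a modified Illumina MiSeq flow-cell, with NaOH stripping and re-annealing between cycles. In each cycle, clusters annealed to 100 nM quencher-labelled ATP aptamer were imaged in selection buffer, then after 15 min with 500 uM ATP at 22 °C. Per cluster, the fluorescence ratio is summed target-cycle over summed buffer-cycle Cy3 intensity, averaged per switch-domain sequence. Only clusters within 100-1000 RFU were kept.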
TCGCATTATG gave a switch fluorescence ratio of 1.44.
With TCGCCAACCT the switch fluorescence ratio was 1.86.
Sequence TCGCCAGGAC has a switch fluorescence ratio of 1.93.
Sequence TCGCCCGTT has a switch fluorescence ratio of 1.04.
TCGCGAACCC showed a switch fluorescence ratio of 1.1.
In the case of TCGCGCGCGA, the switch fluorescence ratio is reported as 0.978.
Work on TCGCGGTAGG yielded a switch fluorescence ratio of 1.
TCGCTATCTT showed a switch fluorescence ratio of 1.01.
TCGCTCTTGT showed a switch fluorescence ratio of 1.03.
TCGCTGAGAG was tested, and the switch fluorescence ratio was 1.08.
TCGCTTAATG gave a switch fluorescence ratio of 1.01.
TCGCTTTCAG gave a switch fluorescence ratio of 1.01.
For TCGGAAAGTG, the switch fluorescence ratio was 1.01.
TCGGAACCAC was tested, and the switch fluorescence ratio was 1.1.
TCGGAACGGC was tested, and the switch fluorescence ratio was 0.96.
With TCGGAATTAA the switch fluorescence ratio was 0.998.
TCGGACCACC was tested, and the switch fluorescence ratio was 1.16.
Work on TCGGACCCGA yielded a switch fluorescence ratio of 1.02.
For TCGGAGGACT, the switch fluorescence ratio was 0.967.
For TCGGAGTGG, the switch fluorescence ratio was 1.02.
TCGGATGACA gave a switch fluorescence ratio of 0.87.
TCGGATGGCT showed a switch fluorescence ratio of 1.02.
With TCGGATTAAA the switch fluorescence ratio was 1.01.
Work on TCGGATTG yielded a switch fluorescence ratio of 0.962.
Sequence TCGGCAACTA has a switch fluorescence ratio of 1.33.
TCGGCAGATG showed a switch fluorescence ratio of 0.967.
Work on TCGGCAGCGT yielded a switch fluorescence ratio of 0.991.
Sequence TCGGCATCGC has a switch fluorescence ratio of 0.945.
Sequence TCGGCCCGAG has a switch fluorescence ratio of 0.997.
Sequence TCGGCCGGTT has a switch fluorescence ratio of 1.03.
TCGGCGAGCG was tested, and the switch fluorescence ratio was 0.99.
For TCGGCGCTAG, the switch fluorescence ratio was 0.98.
TCGGCTTTAA gave a switch fluorescence ratio of 1.04.
In the case of TCGGGACCTT, the switch fluorescence ratio is reported as 1.04.
TCGGGAGGGC was tested, and the switch fluorescence ratio was 0.97.
Sequence TCGGGATGCT has a switch fluorescence ratio of 1.06.
In the case of TCGGGATTAA, the switch fluorescence ratio is reported as 0.986.
For TCGGGCAGTA, the switch fluorescence ratio was 1.1.
TCGGGCTGA was tested, and the switch fluorescence ratio was 1.01.
Work on TCGGGCTGCT yielded a switch fluorescence ratio of 1.03.
Sequence TCGGGGCCCC has a switch fluorescence ratio of 1.6.
With TCGGGTCGGA the switch fluorescence ratio was 0.983.
Sequence TCGGGTTGAT has a switch fluorescence ratio of 1.
With TCGGTACCGT the switch fluorescence ratio was 0.99.
Work on TCGGTACGTG yielded a switch fluorescence ratio of 0.985.
Sequence TCGGTAGTAG has a switch fluorescence ratio of 1.02.
Sequence TCGGTCAGGG has a switch fluorescence ratio of 1.04.
TCGGTCTTAT was tested, and the switch fluorescence ratio was 1.01.
TCGGTGCAGG was tested, and the switch fluorescence ratio was 0.968.
With TCGGTGCCGA the switch fluorescence ratio was 0.972.
TCGGTGGGCT gave a switch fluorescence ratio of 0.941.
In the case of TCGGTTGATA, the switch fluorescence ratio is reported as 0.976.
In the case of TCGGTTGCAG, the switch fluorescence ratio is reported as 0.954.
TCGGTTTAAG showed a switch fluorescence ratio of 0.967.
With TCGGTTTAGT the switch fluorescence ratio was 0.984.
TCGTAAAAAC showed a switch fluorescence ratio of 1.05.
In the case of TCGTACTGA, the switch fluorescence ratio is reported as 1.04.
Work on TCGTACTGTT yielded a switch fluorescence ratio of 0.997.
TCGTAGATAT gave a switch fluorescence ratio of 0.999.
TCGTAGCTCT gave a switch fluorescence ratio of 1.06.
In the case of TCGTAGGTCT, the switch fluorescence ratio is reported as 1.03.
TCGTAGTCCT gave a switch fluorescence ratio of 1.05.
Work on TCGTATACGC yielded a switch fluorescence ratio of 1.01.
Work on TCGTATAGAT yielded a switch fluorescence ratio of 0.948.
In the case of TCGTATGGTA, the switch fluorescence ratio is reported as 0.983.
For TCGTCATCTG, the switch fluorescence ratio was 1.01.
With TCGTCCAGAT the switch fluorescence ratio was 1.04.
TCGTCCCGAG showed a switch fluorescence ratio of 0.958.
TCGTCGGAGA was tested, and the switch fluorescence ratio was 1.
Work on TCGTCGGGAT yielded a switch fluorescence ratio of 1.01.
TCGTCTAAAA showed a switch fluorescence ratio of 1.17.
For TCGTCTCGT, the switch fluorescence ratio was 0.993.
TCGTGAAGC was tested, and the switch fluorescence ratio was 1.01.
Work on TCGTGAATTG yielded a switch fluorescence ratio of 1.09.
Sequence TCGTGCAGGA has a switch fluorescence ratio of 0.994.
TCGTGGACCC gave a switch fluorescence ratio of 1.
